Experimental data as given in paper PMC10331583, “Control of fibrosis with enhanced safety via asymmetric inhibition of prolyl‐tRNA synthetase 1” (EMBO Molecular Medicine, 2023).
“And” between values parts separate entries of the source, which are not always exact repeats. Identical values can stand only once. The source gives many values for each of these; only a part stands here.

Tests used:
WI‐26 VA4 cells [1] = experiment: Collagen ELISA (secreted pro‐collagen I)
WI‐26 VA4 cells [2] = experiment: CellTiter‐Glo assay (cytotoxicity)
[3] = 3 nM, Experiment #1, replicates, 0.003 µM
[4] = 3 nM, Experiment #2, replicates, 0.003 µM
[5] = 10 nM, Experiment #1, replicates, 0.01 µM
[6] = 10 nM, Experiment #2, replicates, 0.01 µM
[7] = 30 nM, Experiment #1, replicates, 0.03 µM
[8] = 30 nM, Experiment #2, replicates, 0.03 µM
[9] = 100 nM, Experiment #1, replicates, 0.1 µM
[10] = 100 nM, Experiment #2, replicates, 0.1 µM
[11] = 300 nM, Experiment #1, replicates, 0.3 µM
[12] = 300 nM, Experiment #2, replicates, 0.3 µM
[13] = 1000 nM, Experiment #1, replicates, 1 µM
[14] = 1000 nM, Experiment #2, replicates, 1 µM
[15] = 3000 nM, Experiment #1, replicates, 3 µM
[16] = 3000 nM, Experiment #2, replicates, 3 µM
[17] = 10000 nM, Experiment #1, replicates, 10 µM
[18] = 10000 nM, Experiment #2, replicates, 10 µM
[19] = 30000 nM, Experiment #1, replicates, 30 µM
[20] = 30000 nM, Experiment #2, replicates, 30 µM
[21] = 100000 nM, Experiment #1, replicates, 100 µM
[22] = 100000 nM, Experiment #2, replicates, 100 µM
[23] = 0.1 nM, Experiment #1, replicates, 0.0001 µM
[24] = 0.1 nM, Experiment #2, replicates, 0.0001 µM
[25] = 0.3 nM, Experiment #1, replicates, 0.0003 µM
[26] = 0.3 nM, Experiment #2, replicates, 0.0003 µM
[27] = 1 nM, Experiment #1, replicates, 0.001 µM
[28] = 1 nM, Experiment #2, replicates, 0.001 µM

| SMILES | CellTiter-Glo % of control (WI‐26 VA4 cells [2]; [3]) | CellTiter-Glo % of control (WI‐26 VA4 cells [2]; [4]) | CellTiter-Glo % of control (WI‐26 VA4 cells [2]; [5]) | CellTiter-Glo % of control (WI‐26 VA4 cells [2]; [6]) | CellTiter-Glo % of control (WI‐26 VA4 cells [2]; [7]) | CellTiter-Glo % of control (WI‐26 VA4 cells [2]; [8]) | CellTiter-Glo % of control (WI‐26 VA4 cells [2]; [9]) | CellTiter-Glo % of control (WI‐26 VA4 cells [2]; [10]) | CellTiter-Glo % of control (WI‐26 VA4 cells [2]; [11]) | CellTiter-Glo % of control (WI‐26 VA4 cells [2]; [12]) | CellTiter-Glo % of control (WI‐26 VA4 cells [2]; [13]) | CellTiter-Glo % of control (WI‐26 VA4 cells [2]; [14]) | CellTiter-Glo % of control (WI‐26 VA4 cells [2]; [15]) | CellTiter-Glo % of control (WI‐26 VA4 cells [2]; [16]) | CellTiter-Glo % of control (WI‐26 VA4 cells [2]; [17]) | CellTiter-Glo % of control (WI‐26 VA4 cells [2]; [18]) | CellTiter-Glo % of control (WI‐26 VA4 cells [2]; [19]) | CellTiter-Glo % of control (WI‐26 VA4 cells [2]; [20]) | CellTiter-Glo % of control (WI‐26 VA4 cells [2]; [21]) | CellTiter-Glo % of control (WI‐26 VA4 cells [2]; [22]) | other results |
| --- | --- | --- | --- | --- | --- | --- | --- | --- | --- | --- | --- | --- | --- | --- | --- | --- | --- | --- | --- | --- | --- |
| Cc1c(Cl)ccc2c1ncn2CC(=O)C[C@H]1NCCC[C@@H]1O [DWN11748] | 111.30 % of control | 104.68 % of control | 98.22 % of control | 98.21 % of control | 101.69 % of control | 90.92 % of control | 105.18 % of control | 84.56 % of control | 79.41 % of control | 70.77 % of control | 62.89 % of control | 53.02 % of control | 27.33 % of control | 23.73 % of control | 30.63 % of control | 19.94 % of control | 20.55 % of control | 5.19 % of control | 0.39 % of control | 0.31 % of control | Collagen, % of control (single replicates per experiment) (WI‐26 VA4 cells [1]; 100 nM, 0.1 µM): 76.16 % of control and 81.70 % of control and 82.66 % of control; Collagen, % of control (single replicates per experiment) (WI‐26 VA4 cells [1]; 300 nM, 0.3 µM): 42.02 % of control and 40.95 % of control and 51.23 % of control and 48.10 % of control and 44.07 % of control and 44.64 % of control and 52.81 % of control and 50.89 % of control and 44.15 % of control and 38.48 % of control and 40.13 % of control; Collagen, % of control (single replicates per experiment) (WI‐26 VA4 cells [1]; 3000 nM, 3 µM): 1.63 % of control and 4.15 % of control and 3.62 % of control and 2.86 % of control and 2.82 % of control and 1.71 % of control and 1.95 % of control and 0.62 % of control and 0.64 % of control and 3.58 % of control and 3.93 % of control and 3.45 % of control; Collagen, % of control (single replicates per experiment) (WI‐26 VA4 cells [1]; 10000 nM, 10 µM): 1.68 % of control and 3.44 % of control and 3.88 % of control and 3.59 % of control and 2.23 % of control and 1.83 % of control and 2.08 % of control and 0.30 % of control and 0.13 % of control and 3.69 % of control and 1.88 % of control and 3.26 % of control |
| Cc1c(Br)cnc2c1ncn2CC(=O)C[C@H]1NCCC[C@@H]1O [DWN11761] | 88.53 % of control | 47.90 % of control and 93.38 % of control | 102.43 % of control | 60.15 % of control and 98.36 % of control | 96.29 % of control | 59.44 % of control and 95.37 % of control | 71.08 % of control | 48.50 % of control and 72.89 % of control | 58.20 % of control | 30.26 % of control and 61.80 % of control | 25.00 % of control | 20.81 % of control | 34.97 % of control | 25.47 % of control | 11.48 % of control | 10.15 % of control | 6.71 % of control | 5.15 % of control | 2.27 % of control | 1.39 % of control | Collagen, % of control (single replicates per experiment) (WI‐26 VA4 cells [1]; 30 nM, 0.03 µM): 65.47 % of control and 66.67 % of control and 85.05 % of control and 102.61 % of control; Collagen, % of control (single replicates per experiment) (WI‐26 VA4 cells [1]; 100 nM, 0.1 µM): 19.67 % of control and 19.95 % of control and 18.05 % of control and 22.16 % of control and 23.43 % of control; Collagen, % of control (single replicates per experiment) (WI‐26 VA4 cells [1]; 1000 nM, 1 µM): 2.12 % of control and 2.08 % of control and 2.14 % of control and 1.97 % of control and 0.60 % of control and 0.27 % of control; Collagen, % of control (single replicates per experiment) (WI‐26 VA4 cells [1]; 3000 nM, 3 µM): 2.07 % of control and 1.61 % of control and 2.34 % of control and 1.16 % of control and 0.85 % of control and 0.73 % of control; CellTiter-Glo % of control (WI‐26 VA4 cells [2]; [23]): 107.81 % of control; CellTiter-Glo % of control (WI‐26 VA4 cells [2]; [24]): 104.50 % of control; CellTiter-Glo % of control (WI‐26 VA4 cells [2]; [25]): 105.27 % of control; CellTiter-Glo % of control (WI‐26 VA4 cells [2]; [26]): 100.60 % of control; CellTiter-Glo % of control (WI‐26 VA4 cells [2]; [27]): 100.46 % of control; CellTiter-Glo % of control (WI‐26 VA4 cells [2]; [28]): 87.21 % of control |
| O=C(C[C@H]1NCCC[C@@H]1O)Cn1cnc2ccc(-c3cccc(F)c3)cc21 [DWN11251] | 103.10 % of control | 110.35 % of control | 105.61 % of control | 126.72 % of control | 114.94 % of control | 127.68 % of control | 113.32 % of control | 123.91 % of control | 92.05 % of control | 109.66 % of control | 75.58 % of control | 81.49 % of control | 37.95 % of control | 45.13 % of control | 31.08 % of control | 28.21 % of control | 18.88 % of control | 14.47 % of control | 1.70 % of control | 0.67 % of control | Collagen, % of control (single replicates per experiment) (WI‐26 VA4 cells [1]; 30000 nM, 30 µM): 1.95 % of control and 2.55 % of control and 3.39 % of control and 3.33 % of control; CellTiter-Glo % of control (WI‐26 VA4 cells [2]; [23]): 111.06 % of control; CellTiter-Glo % of control (WI‐26 VA4 cells [2]; [24]): 117.85 % of control; CellTiter-Glo % of control (WI‐26 VA4 cells [2]; [25]): 115.56 % of control; CellTiter-Glo % of control (WI‐26 VA4 cells [2]; [26]): 118.49 % of control; CellTiter-Glo % of control (WI‐26 VA4 cells [2]; [27]): 114.20 % of control; CellTiter-Glo % of control (WI‐26 VA4 cells [2]; [28]): 105.36 % of control |
